Reference: PMC2140264
Results are given in words; binding and its absence hold for the method and conditions named. For some assays here: Binding seen in cells or lysates may run through a third protein. Some binding calls cover weakened binding; strength is not graded here. For some assays here: Sequences can lack the tags named with a protein.

By UniProt entry, the sequences of proteins in these tests, tags left out.
UniProt Q12373: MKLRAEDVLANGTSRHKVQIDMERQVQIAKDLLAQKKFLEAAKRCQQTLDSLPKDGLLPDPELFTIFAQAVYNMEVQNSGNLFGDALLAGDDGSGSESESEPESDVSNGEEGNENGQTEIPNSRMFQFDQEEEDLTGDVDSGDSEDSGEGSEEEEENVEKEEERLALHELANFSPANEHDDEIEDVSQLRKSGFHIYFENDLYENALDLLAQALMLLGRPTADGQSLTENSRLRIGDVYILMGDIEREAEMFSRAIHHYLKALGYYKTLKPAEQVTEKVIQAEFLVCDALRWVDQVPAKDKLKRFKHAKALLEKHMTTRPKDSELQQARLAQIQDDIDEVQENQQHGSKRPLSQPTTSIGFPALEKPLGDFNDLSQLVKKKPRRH
UniProt Q12341: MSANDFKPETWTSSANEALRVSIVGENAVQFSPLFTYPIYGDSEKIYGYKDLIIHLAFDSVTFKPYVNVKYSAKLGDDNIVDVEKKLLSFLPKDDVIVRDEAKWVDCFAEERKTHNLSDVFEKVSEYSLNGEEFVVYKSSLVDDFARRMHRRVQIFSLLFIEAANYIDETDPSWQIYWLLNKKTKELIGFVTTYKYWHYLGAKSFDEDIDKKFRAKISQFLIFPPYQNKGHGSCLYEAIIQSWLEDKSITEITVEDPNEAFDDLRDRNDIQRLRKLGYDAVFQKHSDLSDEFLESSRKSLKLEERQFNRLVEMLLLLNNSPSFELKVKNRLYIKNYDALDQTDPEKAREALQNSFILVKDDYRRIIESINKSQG

T1: Orc3p (S. cerevisiae) (UniProt P54790)
T1 sequence: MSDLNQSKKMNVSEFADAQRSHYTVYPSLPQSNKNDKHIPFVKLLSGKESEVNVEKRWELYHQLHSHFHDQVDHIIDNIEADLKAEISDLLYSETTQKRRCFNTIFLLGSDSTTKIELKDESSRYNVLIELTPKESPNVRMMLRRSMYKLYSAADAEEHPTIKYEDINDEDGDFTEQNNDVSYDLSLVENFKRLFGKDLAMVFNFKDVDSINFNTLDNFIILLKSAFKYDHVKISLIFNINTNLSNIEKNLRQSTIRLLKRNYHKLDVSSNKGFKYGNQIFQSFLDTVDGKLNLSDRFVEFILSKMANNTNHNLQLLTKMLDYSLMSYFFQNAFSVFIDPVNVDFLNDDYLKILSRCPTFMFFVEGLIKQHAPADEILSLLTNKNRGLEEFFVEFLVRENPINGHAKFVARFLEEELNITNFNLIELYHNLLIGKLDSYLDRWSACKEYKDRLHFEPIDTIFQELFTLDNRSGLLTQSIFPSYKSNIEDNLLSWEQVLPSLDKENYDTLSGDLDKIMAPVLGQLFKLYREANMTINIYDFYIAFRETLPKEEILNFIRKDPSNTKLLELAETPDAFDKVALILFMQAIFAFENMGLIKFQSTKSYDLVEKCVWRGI


Legend:
[1] = molecular target: T1, Orc3p (S. cerevisiae); test: co-IP; yeast whole cell extracts (50 mM HEPES pH 7.8, 200 mM KCl, 1 mM Na2EDTA, 5 mM EGTA-KOH, 10% glycerol, 1 mM DTT); monoclonal α-Orc3p antibody and protein G beads, α-GFP as control antibody; blot with α-myc 9E10; log-phase cells, cells arrested with α-factor, hydroxyurea or nocodazole or released from α-factor; also with benzonase on the beads
[2] = molecular target: TAP-tagged Hif1p (S. cerevisiae) (UniProt Q12373); test: tandem affinity purification with silver-stained gel and Western blot; TAP purifications from HIF1-TAP, HIF1-TAP hat1Δ, HAT1-TAP and HAT1-TAP hif1Δ strains; concentrated purification products blotted with α-Hat1p, α-Orc2p, α-Orc3p, α-Orc5p and α-acetyl H4 Lys12
[3] = molecular target: TAP-tagged Hat1p (S. cerevisiae) (UniProt Q12341); test: as above

Molecule | binding [1] | binding [2] | binding [3]
Hif1–13myc (from UniProt Q12373 1-385) | no binding | – | –
Orc3p (protein, UniProt P54790 1-616) MSDLNQSKKMNVSEFADAQRSHYTVYPSLPQSNKNDKHIPFVKLLSGKESEVNVEKRWELYHQLHSHFHDQVDHIIDNIEADLKAEISDLLYSETTQKRRCFNTIFLLGSDSTTKIELKDESSRYNVLIELTPKESPNVRMMLRRSMYKLYSAADAEEHPTIKYEDINDEDGDFTEQNNDVSYDLSLVENFKRLFGKDLAMVFNFKDVDSINFNTLDNFIILLKSAFKYDHVKISLIFNINTNLSNIEKNLRQSTIRLLKRNYHKLDVSSNKGFKYGNQIFQSFLDTVDGKLNLSDRFVEFILSKMANNTNHNLQLLTKMLDYSLMSYFFQNAFSVFIDPVNVDFLNDDYLKILSRCPTFMFFVEGLIKQHAPADEILSLLTNKNRGLEEFFVEFLVRENPINGHAKFVARFLEEELNITNFNLIELYHNLLIGKLDSYLDRWSACKEYKDRLHFEPIDTIFQELFTLDNRSGLLTQSIFPSYKSNIEDNLLSWEQVLPSLDKENYDTLSGDLDKIMAPVLGQLFKLYREANMTINIYDFYIAFRETLPKEEILNFIRKDPSNTKLLELAETPDAFDKVALILFMQAIFAFENMGLIKFQSTKSYDLVEKCVWRGI | – | no binding | –
myc-tagged Orc5p (protein, UniProt P50874 1-479) MNVTTPEVAFREYQTNCLASYISADPDITPSNLILQGYSGTGKTYTLKKYFNANPNLHAVWLEPVELVSWKPLLQAIARTVQYKLKTLYPNIPTTDYDPLQVEEPFLLVKTLHNIFVQYESLQEKTCLFLILDGFDSLQDLDAALFNKYIKLNELLPKDSKINIKFIYTMLETSFLQRYSTHCIPTVMFPRYNVDEVSTILVMSRCGELMEDSCLRKRIIEEQITDCTDDQFQNVAANFIHLIVQAFHSYTGNDIFALNDLIDFKWPKYVSRITKENIFEPLALYKSAIKLFLSTDDNLSENGQGESAITTNRDDLENSQTYDLSIISKYLLIASYICSYLEPRYDASIFSRKTRIIQGRAAYGRRKKKEVNPRYLQPSLFAIERLLAIFQAIFPIQGKAESGSLSALREESLMKANIEVFQNLSELHTLKLIATTMNKNIDYLSPKVRWKVNVPWEIIKEISESVHFNISDYFSDIHE | binds | – | –
Hat2p (protein, UniProt P39984 1-401) MENQEKPLSVDEEYDLWKSNVPLMYDFVSETRLTWPSLTVQWLPTPVQELDGGFIKQELIIGTHTSGEEENYLKFAEINLPKEILSNEDPQEEAGEEYQSSLPAPRSNIRITAKYEHEEEITRARYMPQDPNIVATINGQGTVFLYSRSEGLQSTLKFHKDNGYALSFSTLVKGRLLSGSDDHTVALWEVGSGGDPTKPVRTWNDLHSDIINDNKWHNFNKDLFGTVSEDSLLKINDVRANNTTIDTVKCPQPFNTLAFSHHSSNLLAAAGMDSYVYLYDLRNMKEPLHHMSGHEDAVNNLEFSTHVDGVVVSSGSDNRLMMWDLKQIGAEQTPDDAEDGVPELIMVHAGHRSSVNDFDLNPQIPWLVASAEEENILQVWKCSHSLPIVGGPPKVNKDIIS | – | binds | binds

Results, then the molecule that gave them:

binding [1] | binding [2] | binding [3] | Molecule
– | no binding | – | Orc2p (protein, UniProt P32833 1-620) MLNGEDFVEHNDILSSPAKSRNVTPKRVDPHGERQLRRIHSSKKNLLERISLVGNERKNTSPDPALKPKTPSKAPRKRGRPRKIQEELTDRIKKDEKDTISSKKKRKLDKDTSGNVNEESKTSNNKQVMEKTGIKEKREREKIQVATTTYEDNVTPQTDDNFVSNSPEPPEPATPSKKSLTTNHDFTSPLKQIIMNNLKEYKDSTSPGKLTLSRNFTPTPVPKNKKLYQTSETKSASSFLDTFEGYFDQRKIVRTNAKSRHTMSMAPDVTREEFSLVSNFFNENFQKRPRQKLFEIQKKMFPQYWFELTQGFSLLFYGVGSKRNFLEEFAIDYLSPKIAYSQLAYENELQQNKPVNSIPCLILNGYNPSCNYRDVFKEITDLLVPAELTRSETKYWGNHVILQIQKMIDFYKNQPLDIKLILVVHNLDGPSIRKNTFQTMLSFLSVIRQIAIVASTDHIYAPLLWDNMKAQNYNFVFHDISNFEPSTVESTFQDVMKMGKSDTSSGAEGAKYVLQSLTVNSKKMYKLLIETQMQNMGNLSANTGPKRGTQRTGVELKLFNHLCAADFIASNEIALRSMLREFIEHKMANITKNNSGMEIIWVPYTYAELEKLLKTVLNTL
– | no binding | – | Orc5p (protein, UniProt P50874 1-479) MNVTTPEVAFREYQTNCLASYISADPDITPSNLILQGYSGTGKTYTLKKYFNANPNLHAVWLEPVELVSWKPLLQAIARTVQYKLKTLYPNIPTTDYDPLQVEEPFLLVKTLHNIFVQYESLQEKTCLFLILDGFDSLQDLDAALFNKYIKLNELLPKDSKINIKFIYTMLETSFLQRYSTHCIPTVMFPRYNVDEVSTILVMSRCGELMEDSCLRKRIIEEQITDCTDDQFQNVAANFIHLIVQAFHSYTGNDIFALNDLIDFKWPKYVSRITKENIFEPLALYKSAIKLFLSTDDNLSENGQGESAITTNRDDLENSQTYDLSIISKYLLIASYICSYLEPRYDASIFSRKTRIIQGRAAYGRRKKKEVNPRYLQPSLFAIERLLAIFQAIFPIQGKAESGSLSALREESLMKANIEVFQNLSELHTLKLIATTMNKNIDYLSPKVRWKVNVPWEIIKEISESVHFNISDYFSDIHE
binds | – | – | Hat2–13myc (protein, UniProt P39984 1-401) MENQEKPLSVDEEYDLWKSNVPLMYDFVSETRLTWPSLTVQWLPTPVQELDGGFIKQELIIGTHTSGEEENYLKFAEINLPKEILSNEDPQEEAGEEYQSSLPAPRSNIRITAKYEHEEEITRARYMPQDPNIVATINGQGTVFLYSRSEGLQSTLKFHKDNGYALSFSTLVKGRLLSGSDDHTVALWEVGSGGDPTKPVRTWNDLHSDIINDNKWHNFNKDLFGTVSEDSLLKINDVRANNTTIDTVKCPQPFNTLAFSHHSSNLLAAAGMDSYVYLYDLRNMKEPLHHMSGHEDAVNNLEFSTHVDGVVVSSGSDNRLMMWDLKQIGAEQTPDDAEDGVPELIMVHAGHRSSVNDFDLNPQIPWLVASAEEENILQVWKCSHSLPIVGGPPKVNKDIIS
